Test results: PMC4336329 (PLoS ONE, 2015)
Out of some 310,000 compounds screened, about 2,200 (0.71%) showed an effect of 50% or more. The effect is printed as a negative number. Some of the results follow.

The molecules below were run against human ether-à-go-go-related gene (hERG) potassium channel (human, UniProt Q12809) (assay: primary screen, population patch clamp on CHO cells stably expressing hERG).
Chain of human ether-à-go-go-related gene (hERG) potassium channel (Q12809 whole entry, looked up): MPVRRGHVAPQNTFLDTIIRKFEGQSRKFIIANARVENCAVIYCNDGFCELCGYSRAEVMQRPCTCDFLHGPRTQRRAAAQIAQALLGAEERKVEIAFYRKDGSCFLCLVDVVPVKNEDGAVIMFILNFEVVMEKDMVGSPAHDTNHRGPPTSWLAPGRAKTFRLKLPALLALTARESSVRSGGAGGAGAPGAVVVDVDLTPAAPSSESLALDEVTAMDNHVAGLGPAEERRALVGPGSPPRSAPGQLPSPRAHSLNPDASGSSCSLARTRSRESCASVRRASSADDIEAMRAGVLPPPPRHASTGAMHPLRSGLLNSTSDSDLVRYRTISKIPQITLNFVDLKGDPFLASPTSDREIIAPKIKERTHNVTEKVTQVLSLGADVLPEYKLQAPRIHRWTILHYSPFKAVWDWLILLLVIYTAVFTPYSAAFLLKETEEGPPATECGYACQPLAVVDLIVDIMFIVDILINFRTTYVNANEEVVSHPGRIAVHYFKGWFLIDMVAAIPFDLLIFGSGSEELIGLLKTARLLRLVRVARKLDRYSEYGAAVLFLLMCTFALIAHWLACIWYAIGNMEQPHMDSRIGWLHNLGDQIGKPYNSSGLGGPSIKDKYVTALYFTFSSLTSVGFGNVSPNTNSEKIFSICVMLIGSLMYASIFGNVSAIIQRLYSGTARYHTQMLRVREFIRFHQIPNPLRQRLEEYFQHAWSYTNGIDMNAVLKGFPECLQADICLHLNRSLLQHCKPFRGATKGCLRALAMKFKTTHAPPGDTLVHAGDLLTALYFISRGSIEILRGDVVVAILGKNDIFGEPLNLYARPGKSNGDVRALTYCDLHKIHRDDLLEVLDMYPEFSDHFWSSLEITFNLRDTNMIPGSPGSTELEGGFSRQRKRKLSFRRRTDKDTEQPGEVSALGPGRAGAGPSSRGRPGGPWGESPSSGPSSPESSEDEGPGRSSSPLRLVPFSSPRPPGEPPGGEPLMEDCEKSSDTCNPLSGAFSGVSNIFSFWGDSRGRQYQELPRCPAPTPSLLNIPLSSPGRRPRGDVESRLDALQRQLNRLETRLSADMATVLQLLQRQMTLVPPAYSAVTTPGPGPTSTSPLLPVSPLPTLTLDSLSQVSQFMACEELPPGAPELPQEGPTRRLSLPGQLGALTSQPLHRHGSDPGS

Row | SMILES | hERG current change (%, negative = inhibition) at 1uM [%]
1 | CCOC(=O)/C=C/C(=O)Nc1ccc(S(=O)(=O)Nc2cc(C)on2)cc1 | 10.3
2 | CCCCOc1ccc(-c2nnn(C(C)C(=O)OCC)n2)cc1 (stereo not shown) | 10.8
3 | COC(=O)c1ccccc1NC(=O)CSc1nnc(-c2cccc(NC(C)=O)c2)n1C | 2.9
4 | CCNC(=O)c1ccccc1-c1nc(-c2ccccc2OC)no1 | 11.8
5 | CCOC(=O)C1=C(C)OC(N)=C(C#N)C1c1c(C)nn(-c2ccccc2)c1Cl (stereo not shown) | 6.47
6 | CCOc1ccccc1OCCCC(=O)Nc1ccc(OC)nc1 | 8.35
7 | COC(=O)c1ccc(C(c2c(N)n(Cc3ccccc3)c(=O)n(C)c2=O)N2CCOCC2)cc1 (stereo not shown) | -12.5
8 | O=S(=O)(c1ccc(F)cc1)N1CCC(c2nc3ccccc3[nH]2)CC1 | 1.03
9 | COc1ccc(Cl)cc1-c1nc(N)nc(N(C)C)n1 | -4.35
10 | CCOc1ccc(NC(=O)NC2CCCc3ccccc32)cc1 (stereo not shown) | 12.4
11 | O=C(NCc1ccccn1)c1cc(-c2ccc(Cl)cc2)oc1C(F)(F)F | 9.77
12 | Cc1ccc(C(=O)NCCC(=O)N2CCOCC2)cc1 | 12.6
13 | CC(OC(=O)CCN=C1NS(=O)(=O)c2ccccc21)C(=O)Nc1ccc(F)c(F)c1F (stereo not shown) | 4.18
14 | O=C(CCCCCN1C(=O)c2cccc([N+](=O)[O-])c2C1=O)Nc1ccccc1F | 15.3
15 | O=C(O)CCN1CCc2ccccc2C1c1ccncc1 (stereo not shown) | 14.8
16 | CCOC(=O)C1CCCN(C(=O)/C=C/c2ccc([N+](=O)[O-])cc2)C1 (stereo not shown) | -47.2
17 | CC(=O)c1ccc(OCC(=O)Nc2ccc3c(c2)CCC3)cc1 | 19.4
18 | S=C(Nc1ccc2nccnc2c1)N1CCCC1 | 42
19 | CN1CCN(/C=N/c2c(C#N)cnn2-c2ccccc2)CC1 | -14.3
20 | CCOC(=O)C(Cc1ccc(NC(=O)/C(=C/c2ccc(OC(C)=O)cc2)NC(C)=O)cc1)N1C(=O)c2ccccc2C1=O (stereo not shown) | 12.4
21 | CC(C)=NN1C(=O)c2ccccc2NC1(C)C | 6.62
22 | Cl.NCCCCCc1nnc(SCc2ccc(Cl)c(Cl)c2)o1 | 2.47
23 | CSc1ccc(CN2CCCN(C)CC2)cc1 | 8.54

Row | SMILES | hERG current change (%, negative = inhibition) at 1uM [%]
24 | COc1cc(C)c(Cl)c(C)c1S(=O)(=O)NCc1cccnc1 | 11.9
25 | CC1CCCN(c2ccc(C(=O)Nc3nnc(C4CC4)s3)cc2[N+](=O)[O-])C1 (stereo not shown) | 14.7
26 | O=C(c1cc2c(s1)-c1ccccc1OC2)N1CCCC1 | 1.5
27 | COc1ccc(NC(=O)C2CCN(S(C)(=O)=O)CC2)cc1OC | 16.9
28 | CCOc1cc(CNc2ccc3c(c2)CCC3)ccc1O | 17.7
29 | Cc1cccc(CSc2nc3sc(C)c(C)c3c(=O)n2Cc2ccco2)c1 | 15.4
30 | COc1ccc(C(=O)CC(c2ccccc2)C2CCCCC2=O)cc1 (stereo not shown) | 13.7
31 | COc1cccc(C(=O)NCC(=O)N2CCC(C)CC2)c1 | 9.4
32 | C#CCOC(=O)c1cc(Cl)c(=O)n(Cc2ccc(Cl)cc2Cl)c1 | 4.75
33 | CCCSc1nc(NCc2ccco2)c2c3c(sc2n1)COC(C)(C)C3 | 4.9
34 | COc1ccc(C2=NN(S(C)(=O)=O)C(c3cccs3)C2)cc1 (stereo not shown) | 6.45
35 | O=C(Nc1ccccc1)c1cc([N+](=O)[O-])ccc1N1CCNCC1 | 1.3
36 | OC(CNC1CCCCC1)c1ccccc1 (stereo not shown) | 16.4
37 | c1ccc(-c2nc(-c3ccccn3)no2)cc1 | 9.94
38 | O=C(c1cc(Br)c[nH]1)N1CCSCC1 | 16
39 | CC(=O)C(C)Oc1ccc(Cc2ncc(C(F)(F)F)cc2Cl)cc1 (stereo not shown) | -3.77
40 | C=C(C)CN=c1scc(C)n1/N=C/c1ccco1 | 1.93
41 | Cc1ccccc1NCC(=O)N=Nc1c(O)[nH]c2ccc([N+](=O)[O-])cc12 | 6.74
42 | CCCN1CCN(C(=O)c2oc3ccccc3c2NC(=O)C2CC2)CC1 | 4.69
43 | Cc1c(Cl)cnc(NC(=O)COC(=O)c2cccc(S(=O)(=O)N3c4ccccc4CC3C)c2)c1Cl (stereo not shown) | 1.41
44 | Cc1cccc(Cl)c1NC(=S)NCCc1ccccn1 | 12
45 | Cc1cc(Cl)c(S(=O)(=O)N2CCSCC2)cc1OCC(=O)NC1CCCCC1 | -0.828
46 | O=c1cc(C(F)(F)F)[nH]c(=S)n1-c1ccccc1 | 23.5
